Among all 150,000 compounds or so, about 540 (0.36%) showed an effect of 50% or more. The list shows a part of the results.
The molecules below were run on Plasmodium falciparum (assay: Primary screen in NF54 nanoGlo assay, in single point, at 2uM, 72h; a lower Z score goes with more inhibition). Settings: timepoint 72 hour.
Type: functional, Erythrocyte
With `CC(=O)N[C@@H](C)C(=O)N1CCc2ccncc21` the “% Inhibition” value was 1% and the Z score was -0.14. In the case of `C[C@@H](C(=O)N(C)CC(C)(CO)CO)c1ccc(Br)cc1`, the “% Inhibition” value was -11% and the Z score was 1.01. With `CC(C)Cn1c(CC2(CC(=O)N[C@H]3CC[C@H](O)CC3)CCCC2)nc2cccnc21` the “% Inhibition” value was -7% and the Z score was 0.91. With `Cc1nn(CC(=O)n2nc(C)c(Cl)c2C)c(C)c1Cl` the “% Inhibition” value was -37% and the Z score was 4.3. For `CN1C(=O)CC(CC(=O)N(C)C2CCOC2)(c2ccc(-c3ccccc3)cc2)C1=O` (stereo not given), the “% Inhibition” value was 9% and the Z score was -1.19. With `COc1cccc(CN2CCC[C@@]3(CCN(c4ncccc4C(N)=O)C3)C2)c1OC` the “% Inhibition” value was 9% and the Z score was -1.1. For `O=C(NCC1(O)CCCCC1)c1ccc(-c2ccncc2F)cc1`, the “% Inhibition” value was -14% and the Z score was 1.37. With `Cc1noc(C)c1CN1C[C@H]2CC[C@@H](C1)N(C(=O)CCc1ccccn1)C2` the “% Inhibition” value was -12% and the Z score was 1.32. In the case of `Cc1ccc(Cn2c(C)cc(=O)c(C(=O)N3CCN(C/C=C/c4ccccc4)CC3)c2C2CC2)o1`, the “% Inhibition” value was 3% and the Z score was -0.33. With `COc1ccccc1NC(=O)Nc1ccccc1Cc1ccccc1` the “% Inhibition” value was -4% and the Z score was 0.69. For `Cn1c(NC(=O)c2ccc(Cl)cc2Cl)c(-c2ccccn2)c(=O)c2ccccc21`, the “% Inhibition” value was 5% and the Z score was -0.65. In the case of `N#Cc1cc(Cl)ccc1S(=O)(=O)N1CC[C@H](N2CCCC2)C1`, the “% Inhibition” value was -4% and the Z score was 0.47. For `O=C1CN(C2CCCC2)C(=O)N1CCCCOc1ccccc1`, the “% Inhibition” value was -10% and the Z score was 1.37. In the case of `CCC(CC)(CNC(=O)C1(C)CCN(C)CC1)OC`, the “% Inhibition” value was -2% and the Z score was 0.24. `C[C@H]1Cc2ccccc2N1C1=NS(=O)(=O)c2ccccc21` was tested, and the “% Inhibition” value was -8% and the Z score was 1. In the case of `Cc1ccc2c(c1)Oc1cc(Cl)c(S(=O)(=O)N3CCc4ccccc4C3)cc1C(=O)N2`, the “% Inhibition” value was -10% and the Z score was 1.35. `CC(C)(C(N)=O)c1ccc(C2=CCCCC2)cc1` was tested, and the “% Inhibition” value was 0% and the Z score was -0.05. `CN(CC#CC(C)(C)O)Cc1ccccc1` was tested, and the “% Inhibition” value was -6% and the Z score was 0.77. `Cc1ccccc1S(=O)(=O)NCc1nnc(C(=O)Nc2ccccc2F)s1` was tested, and the “% Inhibition” value was 8% and the Z score was -0.87. In the case of `Cc1cc(NC(=O)NCC(=O)N2CCCC2)sn1`, the “% Inhibition” value was -24% and the Z score was 2.8. `Cc1cc(C(=O)Cn2cnc(C#N)n2)c(C)n1[C@H]1CCS(=O)(=O)C1` was tested, and the “% Inhibition” value was 0% and the Z score was 0.05. With `COc1ccc(CCOc2nc(-c3ccc(Cl)c(Cl)c3)n(-c3ccc(NC(=O)c4cccs4)cc3)n2)cc1` the “% Inhibition” value was -2% and the Z score was 0.25. With `Cc1cc(NS(=O)(=O)c2cccnc2)ccn1` the “% Inhibition” value was 7% and the Z score was -1.2. For `Cc1cc(=O)n(CC(=O)Nc2ccccc2C)c(N2CCC(C)CC2)n1`, the “% Inhibition” value was -4% and the Z score was 0.36. With `Cc1cc(NC(=O)c2ccc(F)cn2)no1` the “% Inhibition” value was 15% and the Z score was -1.62. In the case of `COc1cc(C(=O)N2CCc3c(cccc3C(C)C)C2)sc1S(N)(=O)=O`, the “% Inhibition” value was -7% and the Z score was 1.12. In the case of `C#CCN1CCC(C(=O)N(C2CCCC2)C2CC2)CC1`, the “% Inhibition” value was -11% and the Z score was 1.13. `O=C(NCCCN1CCCC1=O)C1CCCCC1` was tested, and the “% Inhibition” value was -10% and the Z score was 1.45. `COc1ccc([C@H]2Nc3ccccc3C(=O)N2c2cccc3ccccc23)cc1COc1ccccc1F` was tested, and the “% Inhibition” value was 13% and the Z score was -2.08. For `C[C@@H](CC(=O)N(C)CCS(C)(=O)=O)c1ccc(F)cc1F`, the “% Inhibition” value was 4% and the Z score was -0.59. `Cn1c(-c2nc(-c3ccccc3F)no2)cccc1=O` was tested, and the “% Inhibition” value was 0% and the Z score was 0.03. With `COc1ccc(CNCCOc2ccccc2)cc1OC[C@@H](O)CN1CCCCC1` the “% Inhibition” value was 7% and the Z score was -1.33. In the case of `CC(=O)N1CCC(C(=O)N[C@H]2CC[C@H](Oc3nc(C)cc(C)n3)CC2)CC1`, the “% Inhibition” value was -2% and the Z score was 0.22. For `COc1cc(OC)cc(C(=O)Nc2nc(C(=O)N3CCCCCC3)cs2)c1`, the “% Inhibition” value was -18% and the Z score was 3.32. `O=C(NCc1ccccc1Cl)c1ccc2c(c1)NC(=O)[C@@H]1CCCCN21` was tested, and the “% Inhibition” value was -18% and the Z score was 2.47. For `CC(=O)Nc1ccc(C(C)(C)C)cc1NC(C)=O`, the “% Inhibition” value was -4% and the Z score was 0.46. In the case of `O=S(=O)(NCC1CC2CCC1C2)c1ccc(Cl)s1` (stereo not given), the “% Inhibition” value was -4% and the Z score was 0.48. In the case of `Cn1cccc(C(=O)NC[C@H]2C[C@@H]2c2ccccc2)c1=O`, the “% Inhibition” value was -6% and the Z score was 1.12. In the case of `O=C(c1cccs1)N1CCC(C(=O)N2CCN(c3nccs3)CC2)CC1`, the “% Inhibition” value was -4% and the Z score was 0.58. For `Cc1nc2nncn2c(Nc2ccc3c(c2)CCC3)c1C`, the “% Inhibition” value was 0% and the Z score was 0.04. `Fc1ccccc1CNCc1cnc2ccc(Br)cn12` was tested, and the “% Inhibition” value was -9% and the Z score was 1.34. With `CCN(CCN1CCOCC1)C(=O)c1cc(C(F)(F)F)n[nH]1` the “% Inhibition” value was -3% and the Z score was 0.35. With `CCCCNC(=O)[C@H](C#N)c1nccn1C(F)F` the “% Inhibition” value was -14% and the Z score was 1.69. For `OCC[C@H](Nc1ncc(Cl)cc1Br)c1ccco1`, the “% Inhibition” value was -11% and the Z score was 1.45. `CCc1cc(N2CCC[C@](C)(CO)C2)nc(N(C)C)n1` was tested, and the “% Inhibition” value was 0% and the Z score was -0.02. In the case of `CCOC(C)C(=O)N(CC1CN(C)CCO1)c1nccs1` (stereo not given), the “% Inhibition” value was -17% and the Z score was 3.1. With `COc1ccc(Cl)cc1N1CC[C@H](NC(=O)c2cc[nH]n2)C1` the “% Inhibition” value was 5% and the Z score was -0.61. `COc1cc(Br)c(S(=O)(=O)Nc2ccccc2-c2cn[nH]c2)cc1Cl` was tested, and the “% Inhibition” value was -4% and the Z score was 0.39. In the case of `CN(CCOc1ccc(O)cc1)C(=O)c1cccc2c1CCOC2`, the “% Inhibition” value was -4% and the Z score was 0.43. In the case of `NC(=O)CCN(CCc1ccccc1)Cc1c[nH]nc1-c1ccc(F)cc1`, the “% Inhibition” value was 2% and the Z score was -0.36. For `CN(C)C(=O)NC[C@@H](CO)Cc1ccccc1C(F)(F)F`, the “% Inhibition” value was -4% and the Z score was 0.82. `CN(Cc1noc(C2CC2)n1)C1CCN(c2ccccc2F)CC1` was tested, and the “% Inhibition” value was -1% and the Z score was 0.09. `O=C(CN1CCCCC1)NC(=O)NC1CCCC1` was tested, and the “% Inhibition” value was -11% and the Z score was 1.07. In the case of `CCOc1cc([C@H]2Nc3ccccc3C(CC)(CC)O2)ccc1O`, the “% Inhibition” value was -16% and the Z score was 2.07. `C[C@H]1c2ccccc2CN1S(=O)(=O)c1ccc(N2CCCC2=O)cc1` was tested, and the “% Inhibition” value was -8% and the Z score was 1.24.
